PubChem BioAssay (EPA / NIEHS)
Some entries of the source have several records that differ or are many. They are shown here; other results are not. An entry can have further records. Values given together repeat one measurement (runs, samples, wells, individuals or studies). Results filed as inconclusive are left out. How the source made its calls, unless noted: active means hit-call score of the fitted dose curve at least 0.9, where 1 is the maximum; inconclusive means response in the unintended direction; inactive means score below 0.9. A structure can be active in one record and inactive in another. Signs of the kind (2×) stand for listed records that agree.

How the values were obtained:
[1] = target: Nuclear receptor subfamily 1 group I member 2 (Homo sapiens) (UniProt O75469); assay: ATG_PXR_TRANS: Attagene TRANS-FACTORIAL HepG2 Assay for human Pregnane X Receptor (PXR) (AID 2283008)
Outline: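 Trans-factorial format: exogenous NR-Gal4 fusion activity, not endogenous factor, in transfected human HepG2 liver cells. After 24 h dosing, RNA isolated, reverse-transcribed, amplified and resolved by capillary electrophoresis; induction scored versus DMSO.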

[2] = target: human Retinoid X Receptor beta (RXRb), RXRB (gene 6257) (UniProt P28702); assay: ATG_RXRb_TRANS: Attagene TRANS-FACTORIAL HepG2 Assay for human Retinoid X Receptor beta (RXRb) (AID 2283013)
Outline: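 Readout is reporter transcript induction after 24 h dosing. It is measured by RT-PCR of total RNA followed by fluorescent capillary electrophoresis. HepG2 liver cells carry transfected multiple reporter units driven by an exogenous RXRb-Gal4 fusion; activity is relative to DMSO.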

[3] = target: Estrogen receptor (Homo sapiens) (UniProt P03372); assay: NVS_NR_hER: NovaScreen (NVS) Nuclear Receptor Binding Assay for human Estrogen Receptor (ER) (AID 2283348)
Outline: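 Cell-free MCF7-derived ER preparation, specific radioligand displaced by test compound, read by scintillation counting 18 h post-dosing. Duplicate single-point 25 uM screen, then concentration-response confirmation; DMSO baseline.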

[4] = target: Glucocorticoid receptor (Homo sapiens) (UniProt P04150); assay: NVS_NR_hGR: NovaScreen (NVS) Nuclear Receptor Binding Assay for human Glucocorticoid Receptor (GR) (AID 2283363);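 further: activity is loss of specific radioligand binding signal relative to DMSO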
Outline: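 Compounds first tested in duplicate at 25 uM, actives followed up in concentration series. Binding to extracted GR protein measured as competitive radioligand displacement, filter scintillation read 16 h post-dosing, normalised to DMSO.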

[5] = target: Hypoxia-inducible factor 1-alpha (Homo sapiens) (UniProt Q16665); assay: ATG_HIF1a_CIS: Attagene CIS-FACTORIAL HepG2 Assay for human Hypoxia Inducible Factor 1 (HIF1A) (AID 2282951; active means hit-call score of the fitted dose curve at least 0.9, where 1 is the maximum; inactive means score below 0.9); details: HepG2 Attagene cis-factorial HIF1a reporter transcription; actives raise or lower the signal
Outline: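 Endogenous-TF cis reporter readout, human HepG2 cells, 24 h incubation; mRNA detected via RT-PCR and capillary electrophoresis fluorescence; DMSO-normalised bidirectional fitting.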

[6] = target: Paired box protein Pax-6 (Homo sapiens) (UniProt P26367); assay: ATG_Pax6_CIS: Attagene CIS-FACTORIAL HepG2 Assay for human Paired Box 6 (PAX6) (AID 2282956; active means hit-call score of the fitted dose curve at least 0.9, where 1 is the maximum; inactive means score below 0.9); details: HepG2 CIS-FACTORIAL PAX6 reporter transcription, RNA readout; actives raise or lower the signal
Outline: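 Readout: reporter transcript fluorescence after RT-PCR and capillary electrophoresis. Cells: HepG2, transiently transfected with cis-regulated MRTUs. Exposure 24 h. Gain or loss of signal fitted bidirectionally relative to DMSO.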

[7] = target: rat Mineralocorticoid Receptor (MR), Nr3c2 (gene 25672) (UniProt P22199); assay: NVS_NR_rMR: NovaScreen (NVS) Nuclear Receptor Binding Assay for rat Mineralocorticoid Receptor (MR) (AID 2283355)
Outline: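 Primary HTS ran in duplicate at a single 25 uM concentration, with concentration-series follow-up for actives. Receptor source: adrenalectomized rat brain supernatant, cell-free. Radioligand displacement read by scintillation at 24 h, relative to DMSO baseline.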

[8] = ATG_ERE_CIS: Attagene CIS-FACTORIAL HepG2 Assay for Estrogen Response Element (ERE) (AID 2282940; active means hit-call score of the fitted dose curve at least 0.9, where 1 is the maximum; inactive means score below 0.9); details: HepG2 ERE cis-reporter, Attagene RNA transcript; actives raise or lower the signal
Outline: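 After 24 h compound treatment, RNA from transfected HepG2 cells was reverse-transcribed, reporter cDNA PCR-amplified, FAM-labelled, HpaI-cut and resolved by capillary electrophoresis. ERE-driven cis reporter transcripts reflect endogenous factors; gain or loss scored against DMSO.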

[9] = target: Estrogen receptor (Homo sapiens) (UniProt P03372); assay: ATG_ERa_TRANS: Attagene TRANS-FACTORIAL HepG2 Assay for human Estrogen Receptor alpha (ERa) (AID 2282970); details: HepG2 Attagene TRANS ERa GAL4 reporter, mRNA
Outline: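 Gal4-fusion ERa transactivation, measured as reporter transcript level in transiently transfected HepG2 cells. Exposure 24 h; RT-PCR plus capillary electrophoresis with fluorescence detection.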

[10] = ACEA_ER_80hr: ACEA Biosciences xCELLigence Real-Time Cell Analysis on Estrogen Receptor Agonism for Proliferation (AID 2282667); details: T47D proliferation, impedance (xCELLigence), 80 h
Outline: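 T-47D cells monitored by electrical impedance (xCELLigence) with compound present throughout; 80 h timepoint, positive-direction fitting versus DMSO. Eight-point 1:4 dilutions from 100 uM final, duplicate plates.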

[11] = target: Retinoic acid receptor alpha (Homo sapiens) (UniProt P10276); assay: ATG_DR5_RAR_CIS: Attagene CIS-FACTORIAL HepG2 Assay for human Retinoic Acid Receptor Alpha (RARE), DR5 submotif (AID 2282934; active means hit-call score of the fitted dose curve at least 0.9, where 1 is the maximum; inactive means score below 0.9;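 further: reporter responds to endogenous RAR alpha beta and gamma in HepG2 not RARA alone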); details: HepG2 Attagene cis-factorial RARE DR5 reporter, mRNA; actives raise or lower the signal
[12] = ATG_PBREM_CIS: Attagene CIS-FACTORIAL HepG2 Assay for human Phenobarbital-responsive Enhancer Module (PBREM) (AID 2282955; active means hit-call score of the fitted dose curve at least 0.9, where 1 is the maximum; inactive means score below 0.9); details: HepG2 PBREM cis-reporter, Attagene multiplexed transcription; actives raise or lower the signal
Outline: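 Readout: reporter mRNA, fluorescent RT-PCR fragments separated by capillary electrophoresis. System: HepG2 transiently transfected with cis-regulated reporter units. Exposure: 24 h. Analysis: bidirectional, DMSO baseline.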

[13] = ATG_PXRE_CIS: Attagene CIS-FACTORIAL HepG2 Assay for human Pregnane X Receptor Element (PXRE) (AID 2282957; active means hit-call score of the fitted dose curve at least 0.9, where 1 is the maximum; inactive means score below 0.9); details: HepG2 Attagene CIS-FACTORIAL PXRE reporter, mRNA; actives raise or lower the signal
Outline: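 After a 24 h chemical incubation, total RNA from transfected HepG2 cells was reverse-transcribed and reporter cDNA amplified, FAM-labeled, HpaI-digested and sized by capillary electrophoresis. DMSO served as baseline for bidirectional curve fitting.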

[14] = ATG_SREBP_CIS: Attagene CIS-FACTORIAL HepG2 Assay for human Sterol Regulatory Element Binding (SREBP) (AID 2282962; active means hit-call score of the fitted dose curve at least 0.9, where 1 is the maximum; inactive means score below 0.9); details: HepG2 Attagene cis-factorial SREBP reporter, mRNA; actives raise or lower the signal
Outline: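 Readout: fluorescent reporter-transcript peaks resolved by capillary electrophoresis after RT-PCR. Cells were human HepG2 carrying transfected cis-promoter reporter constructs, dosed for 24 h. Gain or loss of signal was fitted against DMSO controls.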

[15] = ATG_TCF_b_cat_CIS: Attagene CIS-FACTORIAL HepG2 Assay for human T-Cell-Factor with beta-catenin (TCF/b-cat) (AID 2282965; active means hit-call score of the fitted dose curve at least 0.9, where 1 is the maximum; inactive means score below 0.9); details: HepG2 TCF/beta-catenin cis-reporter transcription, actives raise or lower the signal
Outline: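 Endogenous TCF/LEF activity read as reporter transcript level via RT-PCR and capillary electrophoresis fluorescence in transfected HepG2, 24 h exposure; gain or loss of signal fitted against DMSO controls.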

[16] = target: X-box-binding protein 1 (Homo sapiens) (UniProt P17861); assay: ATG_Xbp1_CIS: Attagene CIS-FACTORIAL HepG2 Assay for human X-box Binding Protein 1 (XBP1) (AID 2282972; active means hit-call score of the fitted dose curve at least 0.9, where 1 is the maximum; inactive means score below 0.9); details: HepG2 XBP1 cis-element reporter, Attagene multiplex; actives raise or lower the signal
Outline: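 Read-out: fluorescent reporter mRNA fragments resolved by capillary electrophoresis after RT-PCR. Human HepG2 liver cells carried transfected cis-promoter reporter units and were exposed to chemicals for 24 hours. Gain or loss of signal fitted relative to DMSO baseline.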

[17] = ATG_NRF2_ARE_CIS: Attagene CIS-FACTORIAL HepG2 Assay for human Nuclear Factor Erythroid 2 Related Factor 2 (NFR2) response to Antioxidant Response Elements (ARE) (AID 2282992; active means hit-call score of the fitted dose curve at least 0.9, where 1 is the maximum; inactive means score below 0.9); details: HepG2 Attagene ARE/NRF2 reporter, transcription factor activity; actives raise or lower the signal
Outline: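 Readout: reporter mRNA quantified by RT-PCR plus FAM-labelled primer extension, HpaI digestion and capillary electrophoresis, 24 h after dosing transfected HepG2 cells. Gain or loss of signal is fitted bidirectionally against DMSO baseline.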

[18] = tested on: guinea pig Leukotriene B4 Receptor (LTB4), gene 100379538; assay: NVS_GPCR_gLTB4: NovaScreen (NVS) G Protein-Coupled Receptor Assay for guinea pig Leukotriene B4 Receptor (LTB4) (AID 2283247)
Outline: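 Membranes from guinea pig spleen incubated 2 h with radioligand and compound; bound counts measured by filtration and scintillation. Screened first at 25 uM in duplicate, then actives titrated to a 50 uM top concentration relative to DMSO.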

[19] = target: human Serotonin, 5-Hydroxytryptamine Receptor 6 (5HT6), HTR6 (gene 3362) (UniProt P50406); assay: NVS_GPCR_h5HT6: NovaScreen (NVS) G Protein-Coupled Receptor Assay for human Serotonin, 5-Hydroxytryptamine Receptor 6 (5HT6) (AID 2283253)
Outline: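 Filter scintillation counting of radioligand displacement from HEK293-expressed 5HT6, 1 hour post-dose, with loss of signal relative to DMSO. Single 25 uM duplicates first, with concentration series for confirmation.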

[20] = target: mouse Estrogen Receptor alpha (Era), Esr1 (gene 13982) (UniProt P19785); assay: NVS_NR_mERa: NovaScreen (NVS) Nuclear Receptor Binding Assay for mouse Estrogen Receptor alpha (Era) (AID 2283378);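 further: hit means loss of bound radioligand signal relative to DMSO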
Outline: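 Cell-free radioligand competitive displacement binding, read by filter-based scintillation counting 18 h after dosing. Primary screen run in duplicate at 25 uM, actives retested in concentration series; loss of signal versus DMSO.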

[21] = tested on: Thyroperoxidase (TPO), gene 54314; assay: CCTE_Simmons_AUR_rTPO: CCTE's Amplex UltraRed Assay for Thyroperoxidase (TPO) Inhibition, Simmons Lab (AID 2283662);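 further: potency for loss of signal meaning inhibition of peroxidase activity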
Outline: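 Cell-free peroxidase activity assay using rat thyroid gland microsomes with excess H2O2 (300 uM) and 25 uM Amplex UltraRed. Compounds tested from 5 nM to 87.5 uM; fluorescence measured after 30 min at 37C, analysed relative to DMSO baseline.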

[22] = CCTE_Simmons_CellTiterGLO_HEK293T: Viability Assessment in CCTE's Assays for Thyroperoxidase (TPO) Inhibition, Simmons Lab (AID 2283665);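 further: cells exposed to compound for 24 h before readout; actives reduce ATP signal below DMSO vehicle meaning cytotoxicity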
Outline: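 Luciferase-coupled ATP content after 24 h exposure gives viability; 8-point series from 5 nM to 87.5 uM final in 0.5% DMSO. Human HEK293T cells, 1% FBS medium, three biological replicates, dichlone positive control.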

[23] = target: Luciferin 4-monooxygenase (Photinus pyralis) (UniProt P08659); assay: CCTE_Simmons_QuantiLum_inhib_2: CCTE's Firefly Luciferase Inhibition Assay, Simmons Lab (AID 2283767);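 further: potency for inhibitors that lower luciferase luminescence relative to DMSO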
Outline: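 Eight test concentrations, 5 nM up to 87.5 uM final, preincubated 30min at 37C in the dark with purified luciferase (0.5% DMSO final). Detection reagent (150uM D-luciferin, 147uM dATP, 75uM CoA, pH 7.8) injected per well before kinetic luminescence read; three replicates.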

Sequence of UniProt P10276 (P10276 whole entry, looked up): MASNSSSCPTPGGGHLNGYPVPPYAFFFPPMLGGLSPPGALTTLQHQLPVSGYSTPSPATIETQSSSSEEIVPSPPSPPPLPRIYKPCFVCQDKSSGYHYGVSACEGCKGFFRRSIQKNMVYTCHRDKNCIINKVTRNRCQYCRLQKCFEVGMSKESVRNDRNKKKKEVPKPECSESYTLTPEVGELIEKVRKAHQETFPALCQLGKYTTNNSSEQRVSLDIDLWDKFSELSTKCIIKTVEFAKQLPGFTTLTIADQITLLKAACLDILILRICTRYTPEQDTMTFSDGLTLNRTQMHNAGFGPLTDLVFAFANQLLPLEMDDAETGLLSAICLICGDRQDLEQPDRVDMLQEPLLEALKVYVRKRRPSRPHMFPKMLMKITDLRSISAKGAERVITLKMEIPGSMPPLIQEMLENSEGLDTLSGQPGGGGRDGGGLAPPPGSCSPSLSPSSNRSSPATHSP
Sequence of UniProt P19785 (P19785 whole entry, looked up): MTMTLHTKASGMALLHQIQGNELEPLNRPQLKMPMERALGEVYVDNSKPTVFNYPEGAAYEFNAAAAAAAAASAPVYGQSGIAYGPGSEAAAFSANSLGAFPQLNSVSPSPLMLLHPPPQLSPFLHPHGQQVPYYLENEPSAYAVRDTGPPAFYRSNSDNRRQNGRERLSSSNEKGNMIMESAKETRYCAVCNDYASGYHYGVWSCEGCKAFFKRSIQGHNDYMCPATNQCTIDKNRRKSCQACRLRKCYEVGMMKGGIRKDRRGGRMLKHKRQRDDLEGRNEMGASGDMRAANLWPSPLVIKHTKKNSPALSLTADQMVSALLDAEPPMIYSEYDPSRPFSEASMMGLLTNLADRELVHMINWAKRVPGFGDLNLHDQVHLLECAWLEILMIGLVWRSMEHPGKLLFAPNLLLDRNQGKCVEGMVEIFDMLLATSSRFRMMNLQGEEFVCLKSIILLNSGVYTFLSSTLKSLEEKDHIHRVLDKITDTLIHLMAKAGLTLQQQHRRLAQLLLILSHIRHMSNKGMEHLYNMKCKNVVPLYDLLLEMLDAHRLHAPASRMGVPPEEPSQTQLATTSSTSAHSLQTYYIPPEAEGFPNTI
Sequence of UniProt P03372 (P03372 whole entry, looked up, the tested form may be a part): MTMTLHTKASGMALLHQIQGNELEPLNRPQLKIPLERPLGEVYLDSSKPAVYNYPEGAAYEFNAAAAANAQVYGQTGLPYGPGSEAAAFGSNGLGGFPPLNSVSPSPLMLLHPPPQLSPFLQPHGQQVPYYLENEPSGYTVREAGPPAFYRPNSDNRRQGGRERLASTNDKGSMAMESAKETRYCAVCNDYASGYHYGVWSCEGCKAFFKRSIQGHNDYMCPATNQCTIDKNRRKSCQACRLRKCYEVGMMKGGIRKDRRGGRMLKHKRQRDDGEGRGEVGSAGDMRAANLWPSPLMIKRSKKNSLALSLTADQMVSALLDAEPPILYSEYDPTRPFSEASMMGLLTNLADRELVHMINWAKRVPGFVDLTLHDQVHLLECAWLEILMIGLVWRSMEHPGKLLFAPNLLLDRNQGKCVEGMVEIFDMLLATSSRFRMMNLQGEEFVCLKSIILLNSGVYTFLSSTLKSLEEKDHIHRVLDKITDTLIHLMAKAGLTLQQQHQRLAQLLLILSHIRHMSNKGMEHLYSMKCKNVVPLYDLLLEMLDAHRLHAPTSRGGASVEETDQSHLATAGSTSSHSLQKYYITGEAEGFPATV
Sequence of UniProt P28702 (P28702 whole entry, looked up, the tested form may be a part): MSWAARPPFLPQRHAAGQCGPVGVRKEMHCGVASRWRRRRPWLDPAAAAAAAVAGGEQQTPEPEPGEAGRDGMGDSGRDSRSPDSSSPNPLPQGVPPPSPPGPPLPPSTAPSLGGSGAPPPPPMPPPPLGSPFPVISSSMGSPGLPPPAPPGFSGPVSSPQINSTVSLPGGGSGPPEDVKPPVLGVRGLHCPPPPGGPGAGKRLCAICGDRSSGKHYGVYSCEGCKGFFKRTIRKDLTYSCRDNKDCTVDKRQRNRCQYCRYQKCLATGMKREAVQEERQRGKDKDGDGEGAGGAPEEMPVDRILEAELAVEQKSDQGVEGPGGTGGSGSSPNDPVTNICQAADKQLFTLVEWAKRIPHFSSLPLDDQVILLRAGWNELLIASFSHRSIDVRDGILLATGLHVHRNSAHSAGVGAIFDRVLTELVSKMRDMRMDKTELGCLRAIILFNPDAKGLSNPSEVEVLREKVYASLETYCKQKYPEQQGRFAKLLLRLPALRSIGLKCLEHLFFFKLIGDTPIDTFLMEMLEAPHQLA
Sequence of UniProt P04150 (P04150 whole entry, looked up): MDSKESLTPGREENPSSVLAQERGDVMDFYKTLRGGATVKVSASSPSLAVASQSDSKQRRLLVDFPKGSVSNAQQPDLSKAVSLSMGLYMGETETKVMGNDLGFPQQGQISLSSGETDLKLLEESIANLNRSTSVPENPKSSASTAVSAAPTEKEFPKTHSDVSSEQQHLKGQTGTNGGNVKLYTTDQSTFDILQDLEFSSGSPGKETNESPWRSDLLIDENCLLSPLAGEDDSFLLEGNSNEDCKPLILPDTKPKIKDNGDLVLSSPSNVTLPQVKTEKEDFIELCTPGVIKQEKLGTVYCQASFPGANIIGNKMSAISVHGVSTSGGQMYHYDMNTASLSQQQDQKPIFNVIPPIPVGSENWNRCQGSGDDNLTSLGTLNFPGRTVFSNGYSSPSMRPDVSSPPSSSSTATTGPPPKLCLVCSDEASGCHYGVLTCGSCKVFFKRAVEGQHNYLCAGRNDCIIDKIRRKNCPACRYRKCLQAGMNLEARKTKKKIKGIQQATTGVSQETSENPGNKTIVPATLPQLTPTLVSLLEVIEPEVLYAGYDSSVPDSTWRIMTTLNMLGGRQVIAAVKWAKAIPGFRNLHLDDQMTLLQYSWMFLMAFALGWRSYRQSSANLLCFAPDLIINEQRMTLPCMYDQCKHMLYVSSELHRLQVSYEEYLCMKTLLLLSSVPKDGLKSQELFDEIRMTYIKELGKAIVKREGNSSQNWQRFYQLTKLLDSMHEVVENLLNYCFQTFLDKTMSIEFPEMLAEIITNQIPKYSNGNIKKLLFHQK
Sequence of UniProt P22199 (P22199 whole entry, looked up): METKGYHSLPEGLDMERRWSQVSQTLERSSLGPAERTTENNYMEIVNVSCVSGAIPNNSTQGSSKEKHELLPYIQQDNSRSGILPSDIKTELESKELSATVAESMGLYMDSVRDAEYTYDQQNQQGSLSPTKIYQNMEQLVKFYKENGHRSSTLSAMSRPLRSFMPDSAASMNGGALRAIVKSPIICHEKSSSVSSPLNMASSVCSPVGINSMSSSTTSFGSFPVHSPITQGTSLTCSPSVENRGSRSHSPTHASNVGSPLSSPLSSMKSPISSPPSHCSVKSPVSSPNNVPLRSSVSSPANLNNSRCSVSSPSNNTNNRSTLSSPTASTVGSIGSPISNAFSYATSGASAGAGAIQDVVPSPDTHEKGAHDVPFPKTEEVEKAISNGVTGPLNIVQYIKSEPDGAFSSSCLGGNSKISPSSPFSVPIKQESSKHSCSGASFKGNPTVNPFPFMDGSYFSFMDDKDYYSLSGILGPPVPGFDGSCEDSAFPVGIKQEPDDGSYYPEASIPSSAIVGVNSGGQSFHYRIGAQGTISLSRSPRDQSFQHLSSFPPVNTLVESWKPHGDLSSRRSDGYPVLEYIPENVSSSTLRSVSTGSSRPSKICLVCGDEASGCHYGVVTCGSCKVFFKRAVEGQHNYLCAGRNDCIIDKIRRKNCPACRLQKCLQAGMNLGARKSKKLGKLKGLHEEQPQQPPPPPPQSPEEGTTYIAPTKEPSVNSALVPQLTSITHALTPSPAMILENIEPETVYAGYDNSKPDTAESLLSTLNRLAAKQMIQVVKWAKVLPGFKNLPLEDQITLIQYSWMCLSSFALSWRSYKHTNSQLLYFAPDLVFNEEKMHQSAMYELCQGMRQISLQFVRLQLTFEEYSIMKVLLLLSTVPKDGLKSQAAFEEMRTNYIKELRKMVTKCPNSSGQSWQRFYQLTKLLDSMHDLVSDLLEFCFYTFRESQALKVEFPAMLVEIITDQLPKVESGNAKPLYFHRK
Sequence of UniProt O75469 (O75469 whole entry, looked up, the tested form may be a part): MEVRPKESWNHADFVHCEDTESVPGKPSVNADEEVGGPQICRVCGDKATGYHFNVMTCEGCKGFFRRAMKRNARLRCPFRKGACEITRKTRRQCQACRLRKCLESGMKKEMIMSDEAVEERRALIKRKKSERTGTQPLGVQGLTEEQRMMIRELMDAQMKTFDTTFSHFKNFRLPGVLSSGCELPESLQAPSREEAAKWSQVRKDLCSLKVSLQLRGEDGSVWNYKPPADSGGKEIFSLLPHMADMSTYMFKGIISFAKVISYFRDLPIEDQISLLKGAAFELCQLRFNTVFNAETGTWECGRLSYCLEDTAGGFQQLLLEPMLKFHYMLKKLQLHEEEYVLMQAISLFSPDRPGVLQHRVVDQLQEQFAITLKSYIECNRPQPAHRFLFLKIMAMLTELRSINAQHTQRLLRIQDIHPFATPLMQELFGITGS
Sequence of UniProt P08659 (P08659 whole entry, looked up): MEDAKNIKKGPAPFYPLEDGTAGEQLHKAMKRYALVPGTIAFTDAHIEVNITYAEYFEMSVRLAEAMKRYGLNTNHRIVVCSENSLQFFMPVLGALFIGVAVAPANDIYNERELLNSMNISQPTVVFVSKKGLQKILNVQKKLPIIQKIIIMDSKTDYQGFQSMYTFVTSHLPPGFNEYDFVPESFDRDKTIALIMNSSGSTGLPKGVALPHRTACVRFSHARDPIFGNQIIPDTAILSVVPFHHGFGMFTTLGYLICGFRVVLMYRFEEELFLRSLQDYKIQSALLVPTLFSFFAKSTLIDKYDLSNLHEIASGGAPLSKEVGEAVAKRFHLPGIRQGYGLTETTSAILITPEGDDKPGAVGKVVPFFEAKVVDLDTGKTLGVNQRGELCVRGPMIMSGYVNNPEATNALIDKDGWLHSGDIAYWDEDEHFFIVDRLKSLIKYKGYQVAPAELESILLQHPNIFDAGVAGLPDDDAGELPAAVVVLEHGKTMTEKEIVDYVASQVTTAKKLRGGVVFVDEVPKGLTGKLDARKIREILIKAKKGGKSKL

Compound: CC(C)CCCCCCc1ccc(O)cc1
- AC50 [1]: active: 3.84, 2.78, 18.3, 3.06 µM [separate samples]
- AC50 [2]: active: 1.65, 2.15, 4.87, 1.37 µM [separate samples]
- AC50 [3]: active: 6.1, 1.29, 15.2, 14.6 µM [separate samples]

Compound: N[C@@H](Cc1cc(I)c(Oc2ccc(O)c(I)c2)c(I)c1)C(=O)O
- AC50 [4]: active: 2.49 µM, 1.06 µM, 1.93 µM, 772 nM [separate samples]

Compound: CC(=O)S[C@@H]1CC2=CC(=O)CC[C@]2(C)[C@H]2CC[C@@]3(C)[C@@H](CC[C@@]34CCC(=O)O4)[C@H]12
- AC50 [5]: active: 38.4, 72.5, 22.5, 39.1 µM [separate samples]
- AC50 [6]: active: 52.1, 75.4, 15.3, 46.5 µM [separate samples]
- AC50 [7]: active: 5.96, 19, 7.26, 2.29 nM [separate samples]
- AC50 [4]: active: 556, 153, 320, 183 nM [separate samples]

Compound: CCOC(=O)c1ccc(O)cc1
- AC50 [8]: active: 42.6, 27.6, 44.5, 8.03 µM [separate samples]
- AC50 [9]: active: 34.3, 27.5, 78.9, 7.82 µM [separate samples]

Compound: CC(C)(c1ccc(O)cc1)c1ccc(O)cc1
- AC50 [10]: active: 934 nM, 347 nM, 859 nM, 370 nM, 380 nM, 818 nM, 1.09 µM, 815 nM, 472 nM [separate samples]
- AC50 [11]: active: 26.7 µM, 25.5 µM, 2.41 µM, 292 nM [separate samples]
- AC50 [8]: active: 262 nM, 513 nM, 363 nM, 383 nM, 320 nM, 98.8 nM, 456 nM, 293 nM, 42.1 µM [separate samples]
- AC50 [12]: active: 7.46, 27.6, 5.52, 22.2 µM [separate samples]
- AC50 [13]: active: 3.43, 4.1, 4.48, 6.22, 4.61, 1.74, 5.8, 1.97 µM [separate samples]
- AC50 [14]: active: 64.4, 66, 36.3, 29.1, 21, 50, 34.6 µM [separate samples]
- AC50 [15]: active: 79, 64.3, 81.7, 84.7, 73.4, 26.6, 69.7 µM [separate samples]
- AC50 [16]: active: 151, 140, 101 (2×), 50.3, 50, 107 µM [separate samples]
- AC50 [17]: active: 26.1, 57.8, 28.4, 27.5, 27.6, 17.9, 18.8, 34.7 µM [separate samples]
- AC50 [1]: active: 4.04 µM, 4.45 µM, 3.58 µM, 4.66 µM, 5.59 µM, 671 nM, 13.7 µM, 1.27 µM [separate samples]
- AC50 [18]: active: 1.24, 10.1, 39.2, 13.7 µM [separate samples]
- AC50 [19]: active: 9.89, 2.49, 5.94, 7.28 µM [separate samples]
- AC50 [20]: active: 153 nM, 275 nM, 319 nM, 1.19 µM, 850 nM, 1.03 µM, 2.24 µM [separate samples]
- AC50 [21]: active: 451 nM, 430 nM, 336 nM, 1.37 µM, 1.34 µM, 995 nM, 528 nM, 386 nM, 1.17 µM [separate samples]
- AC50 [22]: active: 95.6, 91.3, 43.8, 65.4, 6.59, 84.2, 86.4, 80.4 µM [separate samples]
- AC50 [23]: active: 31.4, 53.8 (4×), 33.6, 28.8, 11.1 µM [separate samples]
